# From publication PMC4336329 (PLoS ONE, 2015)
# The whole screen tested about 310,000 compounds, of which about 2,200 (0.71%) showed an effect of 50% or more. Effects have a minus sign here. Some of the results follow.
# Target: human ether-à-go-go-related gene (hERG) potassium channel (human, UniProt Q12809)
# Assay: primary screen, population patch clamp on CHO cells stably expressing hERG
# human ether-à-go-go-related gene (hERG) potassium channel, sequence (Q12809 whole entry, looked up): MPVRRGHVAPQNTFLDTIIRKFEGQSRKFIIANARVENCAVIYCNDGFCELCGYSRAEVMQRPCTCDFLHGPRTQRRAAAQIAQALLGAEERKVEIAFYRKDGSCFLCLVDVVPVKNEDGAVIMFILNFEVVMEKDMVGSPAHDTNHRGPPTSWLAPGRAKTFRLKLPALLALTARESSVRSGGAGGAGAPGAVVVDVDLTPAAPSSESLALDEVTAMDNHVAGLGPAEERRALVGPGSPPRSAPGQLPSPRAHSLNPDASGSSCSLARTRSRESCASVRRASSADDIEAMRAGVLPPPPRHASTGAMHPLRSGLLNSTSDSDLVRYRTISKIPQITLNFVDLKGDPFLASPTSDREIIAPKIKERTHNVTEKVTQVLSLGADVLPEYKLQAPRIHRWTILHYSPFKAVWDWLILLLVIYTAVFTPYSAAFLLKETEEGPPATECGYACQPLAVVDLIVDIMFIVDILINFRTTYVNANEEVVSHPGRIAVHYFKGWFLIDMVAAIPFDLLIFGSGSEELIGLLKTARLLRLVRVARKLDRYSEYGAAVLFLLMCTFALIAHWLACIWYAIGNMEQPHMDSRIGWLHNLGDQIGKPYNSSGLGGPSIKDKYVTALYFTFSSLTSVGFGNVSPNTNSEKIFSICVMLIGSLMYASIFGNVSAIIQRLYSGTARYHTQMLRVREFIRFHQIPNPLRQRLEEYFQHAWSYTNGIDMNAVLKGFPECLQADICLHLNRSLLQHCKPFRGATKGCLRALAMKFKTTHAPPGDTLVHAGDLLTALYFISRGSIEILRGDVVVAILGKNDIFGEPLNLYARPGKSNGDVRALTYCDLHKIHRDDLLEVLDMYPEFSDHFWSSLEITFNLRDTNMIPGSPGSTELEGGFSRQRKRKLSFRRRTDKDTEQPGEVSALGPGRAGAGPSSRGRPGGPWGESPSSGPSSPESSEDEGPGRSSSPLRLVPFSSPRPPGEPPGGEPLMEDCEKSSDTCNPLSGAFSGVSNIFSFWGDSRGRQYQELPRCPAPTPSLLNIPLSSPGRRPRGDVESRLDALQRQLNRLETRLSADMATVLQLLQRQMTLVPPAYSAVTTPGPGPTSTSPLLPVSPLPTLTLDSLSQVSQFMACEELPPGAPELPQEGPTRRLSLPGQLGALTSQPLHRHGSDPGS
row,SMILES,"hERG current change (%, negative = inhibition) at 1uM [%]"
1,Cc1ccc2sc(NNC(=O)C3=COCCO3)nc2c1C,8.38
2,C/C(=N\Nc1ccc(Cl)c(C(=O)O)c1)c1ccccn1,8.23
3,Cc1ccc(S(=O)(=O)NC2=C(N3CCN(c4ccccc4F)CC3)C(=O)c3ccccc3C2=O)cc1,15.4
4,CCc1nc(SCC(=O)NC2CC2)c2c(C)c(C)sc2n1,-4.16
5,O=C(CCC1CCCCC1)Nc1ccccc1-c1ccccc1,10.6
6,O=C(CN1C(=O)NC(Cc2ccccc2)C1=O)Nc1ccc(OC(F)F)cc1 (centres unmarked),-46.7
7,COc1ccc(N2CC(C(=O)N[C@@H](C)C(=O)N3CCCCC3)CC2=O)cc1 (some centres unmarked),12.2
8,CCO[C@@H]1OC(C(=O)N2CCCCCCC2)=C[C@H](c2ccc3c(c2)OCO3)[C@H]1CCCO,-1.26
9,COC(=O)c1ccc(OCc2cc(=O)n3ccsc3n2)cc1,8.79
10,C=CCN1CCN(Cc2cnc(Cl)s2)CC1,3.5
11,CC(C)(C)c1ccc(-c2ncccc2O)cc1.Cl,7.72
12,Cl.O=C(c1ccc2c(c1)OCCO2)N1CCN(Cc2ccccc2)CC1,13.4
13,Cc1nc(NS(=O)(=O)c2ccccc2)sc1C(C)(C)C,-1.22
14,COc1ccccc1CNC(=O)Cc1cc(=O)[nH]c(=O)[nH]1,4.92
15,CC(=O)Nc1ccc(CN(C)CC2CCCN(CCc3cccc(C(F)(F)F)c3)C2)cc1 (centres unmarked),-18.4
16,OCC[C@@H]1C[C@@H](O)[C@H](O)[C@]2(CCCCO2)O1,20.4
17,O=C(Nc1nccs1)c1nc(-c2ccccc2)n(-c2ccccc2)n1,12.9
18,CCCN(S(=O)(=O)c1ccc(OCC)cc1)S(=O)(=O)c1cccs1,9.59
19,Clc1nc2nc3n(c2nc1Cl)CCC3,1.96
20,O=C(CN1CCc2ccccc2C1)NCC(=O)Nc1ccc(F)cc1,10.6

row,SMILES,"hERG current change (%, negative = inhibition) at 1uM [%]"
1,CC(Sc1cccc2cccc(C(=O)O)c12)C(=O)O (centres unmarked),20.7
2,COc1ccc(C2=NN(C(=O)c3ccccc3)C(c3ccccc3)C2)c(O)c1 (centres unmarked),16.7
3,Cc1ccc(NC(=O)CCNCc2ccco2)cc1S(=O)(=O)N(C)C.O=C(O)C(=O)O,7.87
4,CC(C)(C)NC(=O)NC(=O)COc1ccccn1,21.2
5,O=C1CN(C(=O)COC(=O)c2ccco2)c2ccccc2N1,14.9
6,CCOc1ccc(CN2CCC(n3nccc3NC(=O)CCCc3ccccc3)CC2)cc1,-88.8
7,Cc1cc(S(=O)(=O)Nc2ccc(C(=O)NCC3(N4CCCCC4)CCCCC3)cc2)ccc1F,-38.3
8,CN(Cc1ccsc1)C(=O)Cn1cc(Br)ccc1=O,-2.27
9,CCNC(=S)Nc1cc(C(=O)N2CCCC2)ccc1N1CCCC1,7.09
10,Cc1ccc(CC(=O)N2CCN(C)CC2)cc1,14.9
11,CN(C)n1cnc2ccsc2c1=O,12.9
12,COCCNC(=O)Cn1c(=O)n(Cc2ccco2)c(=O)c2ccccc21,2.05
13,O=S(=O)(c1ccccc1)c1nc(-c2cccs2)oc1NCCCn1ccnc1,-33.4
14,CCCCNC(=S)Nc1cccc(S(=O)(=O)NC2=NCCC2)c1,11
15,CCCOc1ccccc1/C=C(\C#N)C(=O)Nc1cccc(C)n1,11.6
16,CC(Cc1ccccc1)N/C=C1/CC(=O)NC1=O (centres unmarked),5.22
17,COc1ccc(/C=N/NC(=O)Cn2ccnc2C)cc1OC,11.2
18,O=C1C2C(c3ccccc3)C=CC(c3ccccc3)C2C(=O)N1C1CCCCC1 (centres unmarked),10.5
19,CC(=O)c1ccc(NC(=O)CSc2nnc(Cn3cnc4ccccc43)o2)cc1,10.7
20,CC(C)N1C2OC(C3OC4C(O3)N(C(C)C)S(=O)(=O)N4C(C)C)OC2N(C(C)C)S1(=O)=O (centres unmarked),7.85

row,SMILES,"hERG current change (%, negative = inhibition) at 1uM [%]"
1,Cc1ccc(NC(=O)CCN2C(=O)c3ccccc3Sc3ncccc32)cc1,8.05
2,Br.Cc1ccc(Cn2c(=N)n(CC(=O)c3ccc([N+](=O)[O-])cc3)c3ccccc32)cc1,2.29
3,Cc1nn(CC2CC2)c(=O)n1-c1ccccc1,11.1
4,CSc1ccc(C#N)cc1NC(=O)c1ccc(Cl)nc1,10.5
5,O=C(c1cccc2c1-c1ccccc1C2)N1CCCCC1,4.11
6,CC(C)c1nn2c(=O)cc(COc3cccc(NC(=O)c4ccco4)c3)nc2s1,17.7
7,O=C(Cn1cnc2ccccc2c1=O)N1CCc2ccccc2C1,7.18
8,COc1ccc(C2(CNC(=O)/C=C\c3ccco3)CCCC2)cc1OC,10.4
9,C=C(C)Cn1c(SCC#N)nc2ccccc2c1=O,3.85
10,CCC(=O)OCC(=O)Nc1ccc(OC)cc1[N+](=O)[O-],15.8
11,CCOC(=O)c1cn(CC)c2ccc(S(=O)(=O)N3CCC(C)CC3)cc2c1=O,-4.51
12,O=C1N=C(N2CCCC2)S/C1=C\c1ccccc1,12.3
13,C(=Nc1cccc2c(N=Cc3ccco3)cccc12)c1ccco1,16.9
14,Cc1c(Br)c([N+](=O)[O-])nn1CC(=O)Nc1ccc(C(N)=O)cc1,12.1
15,N=C1SCC(=O)N1c1ncc(Cc2ccc(F)cc2)s1,7.93
16,CC(C)OC(=O)C(C#N)c1nc2ccccc2nc1N1CCCC1 (centres unmarked),12.3
17,CC(CCCCC(=O)Nc1ccc(C(F)(F)F)cc1)NCCc1cnc[nH]1.O=C(O)/C=C\C(=O)O (centres unmarked),-3.77
18,CC(C)Cc1ccc(C(C)C(=O)N2CCOCC2)cc1 (centres unmarked),-1.62
19,COc1ccc(CNC(=O)COC(=O)c2nc3nc(C)cc(C)n3n2)cc1,14.3
